Experimental findings from the supplement of paper PMC9938546 are described below.

Where a name gives a salt, the structure may show the parent alone. The list shows a part of the results. Repeats are few or missing, and single values can be far off.
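Further: viability estimated indirectly by image-based GFP quantification with live-cell imaging of the constitutively GFP-expressing human colorectal cancer line, no immune cells added.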

This experiment concerns HCT116-GFP. Description: HCT116-GFP viability (GFP intensity) relative to untreated control, monoculture; higher = less cancer cell killing. The following applies: culture: HCT116-GFP monoculture; 10 µM; 72 h.
`Clc1ccc(CCC(Cn2ccnc2)Sc2c(Cl)cccc2Cl)cc1` (stereo not drawn) [Butoconazole nitrate]: the HCT116-GFP viability was 70.3%.
With `CN1CCN(C2=Nc3ccccc3Oc3ccc(Cl)cc32)CC1` [Loxapine succinate], the HCT116-GFP viability turned out to be 105%.
The same measure for `N=C(NCCCCCCNC(=N)NC(=N)Nc1ccc(Cl)cc1)NC(=N)Nc1ccc(Cl)cc1` [Chlorhexidine]: 24.3%.
For the compound `NCc1ccccc1CC(=O)N[C@@H]1C(=O)N2C(C(=O)O)=C(CSc3nnnn3CC(=O)O)CS[C@H]12` [Ceforanide], the HCT116-GFP viability was found to be 89.4%.
In the case of `CC(=O)Oc1ccccc1C(=O)Nc1ncc([N+](=O)[O-])s1` [Nitazoxanide], the HCT116-GFP viability came out at 61.3%.
Consider `CC(N/C(=N\C#N)Nc1ccncc1)C(C)(C)C` (stereo not drawn) [Pinacidil], for which the HCT116-GFP viability came out at 92.3%.
For `CCCCC(O)c1ccccc1` (stereo not drawn) [Fenipentol], the HCT116-GFP viability came to 96.3%.
As for `CCN(CC)CCOC(=O)C1(C2CCCCC2)CCCCC1` [Dicyclomine hydrochloride], the HCT116-GFP viability was determined as 101%.
Consider `CN(C)CCCN1c2ccccc2Sc2ccc(C(F)(F)F)cc21` [Triflupromazine hydrochloride], for which the HCT116-GFP viability was determined as 31.8%.
Regarding `COc1cc(C(=O)OCCCN2CCCN(CCCOC(=O)c3cc(OC)c(OC)c(OC)c3)CC2)cc(OC)c1OC` [Dilazep dihydrochloride], the HCT116-GFP viability was 80.6%.
The same measure for `O=C1c2c(O)cccc2Cc2cccc(O)c21` [Anthralin]: 99.2%; for `Cc1ccc(N(CC2=NCCN2)c2cccc(O)c2)cc1` [Phentolamine hydrochloride]: 86.2%; for `CCc1ccc(CCOc2ccc(CC3SC(=O)NC3=O)cc2)nc1` (stereo not drawn) [Pioglitazone]: 88.5%.
The same measure for `CO[C@H]1/C=C/O[C@@]2(C)Oc3c(C)c(O)c4c(O)c(c(/C=N/N5CCN(C)CC5)c(O)c4c3C2=O)NC(=O)/C(C)=C\C=C\[C@H](C)[C@H](O)[C@@H](C)[C@@H](O)[C@@H](C)[C@H](OC(C)=O)[C@@H]1C` [Rifampicin]: 89.1%; for `Cc1c(Cl)cccc1Nc1ccccc1C(=O)O` [Tolfenamic acid]: 94%.
The figure for `CCCSc1ccc2[nH]c(NC(=O)OC)nc2c1` [Albendazole] is 14.4%; for `CC[C@H]1OC(=O)[C@H](C)[C@@H](O[C@H]2C[C@@](C)(OC)[C@@H](O)[C@H](C)O2)[C@H](C)[C@@H](O[C@@H]2O[C@H](C)C[C@H](N(C)C)[C@H]2O)[C@](C)(O)C[C@@H](C)C(=O)[C@H](C)[C@@H](O)[C@]1(C)O` [Erythromycin] it is 95.4%.
Turning to `c1ccc(CC2=NCCN2)cc1` [Tolazoline hydrochloride], the HCT116-GFP viability worked out at 96.2%.
The figure for `CC(C)(Oc1ccc(CCNC(=O)c2ccc(Cl)cc2)cc1)C(=O)O` [Bezafibrate] is 99%.
The figure for `OCCN1CCN(CCCN2c3ccccc3Sc3ccc(C(F)(F)F)cc32)CC1` [Fluphenazine dihydrochloride] is 48%.
The figure for `O=C(O)CCc1nc(-c2ccccc2)c(-c2ccccc2)o1` [Oxaprozin] is 78%; for `Clc1ccc2c(c1)C(N1CCNCC1)=Nc1ccccc1O2` [Amoxapine] it is 101%.
Take `O=C1c2ccccc2C(=O)C1c1ccccc1` [Phenindione]: the HCT116-GFP viability stood at 96%.
The figure for `COc1ccc(CC(C)NCC(O)c2ccc(O)c(NC=O)c2)cc1` (stereo not drawn) [Formoterol fumarate] is 90.1%.
The figure for `CCOC(=O)N1CCC(=C2c3ccc(Cl)cc3CCc3cccnc32)CC1` [Loratadine] is 70.2%; for `COCCCC/C(=N\OCCN)c1ccc(C(F)(F)F)cc1` [Fluvoxamine maleate] it is 97.1%; for `COC(=O)[C@H](c1ccccc1Cl)N1CCc2sccc2C1` [Clopidogrel] it is 94.2%.
The same measure for `C[C@]12CCC(=O)C=C1CC[C@@H]1[C@@H]2C(=O)C[C@@]2(C)[C@H]1CC[C@]2(O)C(=O)CO` [Cortisone]: 104%; for `CC(=O)[C@@]12O[C@](C)(c3ccccc3)O[C@@H]1C[C@H]1[C@@H]3CCC4=CC(=O)CC[C@]4(C)[C@H]3CC[C@@]12C` [Algestone acetophenide]: 53.8%.
On to `C[C@H](N[C@@H](CCc1ccccc1)C(=O)O)C(=O)N1CCC[C@H]1C(=O)O` [Enalaprilat dihydrate], for which the HCT116-GFP viability came out at 104%.
The figure for `CN(C)[C@@H]1C(O)=C(C(N)=O)C(=O)[C@@]2(O)C(O)=C3C(=O)c4c(O)cccc4[C@@](C)(O)[C@H]3C[C@@H]12` [Tetracycline hydrochloride] is 94.7%.
The figure for `CS(=O)(=O)c1ccc([C@@H](O)[C@@H](CF)NC(=O)C(Cl)Cl)cc1` [Florfenicol] is 76.3%; for `CCN(CC)CCCC(C)Nc1ccnc2cc(Cl)ccc12` (stereo not drawn) [Chloroquine diphosphate] it is 115%.
As to `C=C(CC)C(=O)c1ccc(OCC(=O)O)c(Cl)c1Cl` [Ethacrynic acid], the HCT116-GFP viability was found to be 102%.
`Nc1ccc(S(=O)(=O)NC(=O)c2ccccc2)cc1` [Sulfabenzamide]: the HCT116-GFP viability came to 94.4%.
On to `CCCCCN(C)CCC(O)(P(=O)(O)O)P(=O)(O)O` [Ibandronate sodium], for which the HCT116-GFP viability was determined as 102%.
For the compound `O=C1NCCN1c1ncc([N+](=O)[O-])s1` [Niridazole], the HCT116-GFP viability amounted to 93.4%.
The same measure for `C1N2CN3CN1CN(C2)C3` [Methenamine]: 94.9%.
The figure for `CNc1ncnc2c1ncn2[C@@H]1O[C@H](CO)[C@@H](O)[C@H]1O` [N6-methyladenosine] is 115%.
The figure for `OCC(O)CN1CCN(c2ccccc2)CC1` (racemic) [Dropropizine (R,S)] is 111%; for `CC(C)(C)C(=O)OCOC(=O)[C@@H]1N2C(=O)[C@@H](/N=C/N3CCCCCC3)[C@H]2SC1(C)C` [Pivmecillinam hydrochloride] it is 82.5%.
On to `c1ccc2c(c1)CCCC2C1=NCCN1` (stereo not drawn) [Tetrahydrozoline hydrochloride], for which the HCT116-GFP viability stood at 101%.
The figure for `C[C@@H](O)[C@H]1C(=O)N2C(C(=O)O)=C(SCCNC=N)C[C@H]12` [Imipenem] is 83.8%; for `CC(=O)OCC(=O)NCCCOc1cccc(CN2CCCCC2)c1` [Roxatidine Acetate hydrochloride] it is 106%; for `CCn1cc(C(=O)O)c(=O)c2cc(F)c(N3CCNCC3)nc21` [Enoxacin] it is 108%.
As to `CCCc1ncc(C[n+]2ccccc2C)c(N)n1` [Amprolium hydrochloride], the HCT116-GFP viability is 110%.
The figure for `Oc1ccc(C2CNCCc3c2cc(O)c(O)c3Cl)cc1` (stereo not drawn) [Fenoldopam] is 109%; for `CC(C(=O)O)c1cccc(Oc2ccccc2)c1` (stereo not drawn) [Fenoprofen calcium salt dihydrate] it is 110%.
